The list shows a part of the results.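 How the source made its calls: active = fold change of at least 2 over DMSO control; inactive = below 2-fold.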 Many values rest on one well or one pass, so single values are uncertain.

For this experiment, the system named is HEK293 ARE/NRF2-luciferase reporter. Description: ARE/NRF2 luciferase reporter activity, fold change over DMSO control; higher = stronger NRF2/ARE reporter activation. To be noted: 10 µM; 24 h. On the technique in general: In a reporter assay the amount or activity of a reporter protein is the signal.
Turning to `c1ccc(CC2=NCCN2)cc1`, the “ARE/NRF2 luciferase reporter activity” value is inactive: 0.877.
Take `NCCCC(N)(C(=O)O)C(F)F` (stereo not given): the “ARE/NRF2 luciferase reporter activity” value is inactive: 0.938.
As for `CN(C)CCc1c[nH]c2ccc(Cn3cncn3)cc12`, the “ARE/NRF2 luciferase reporter activity” value was inactive: 1.15.
With `O=C(O)c1cc(=O)c2c(OCC(O)COc3cccc4oc(C(=O)O)cc(=O)c34)cccc2o1`, the “ARE/NRF2 luciferase reporter activity” value is inactive: 0.936.
As for `Cc1nnc(NS(=O)(=O)c2ccc(N)cc2)s1`, the “ARE/NRF2 luciferase reporter activity” value is inactive: 0.905.
As to `CC(C(=O)O)c1ccc(N2Cc3ccccc3C2=O)cc1` (stereo not given), the “ARE/NRF2 luciferase reporter activity” value was inactive: 1.14.
Consider `O=c1cccc2ccc(O)c(O)c2c1O`, for which the “ARE/NRF2 luciferase reporter activity” value is active: 4.
For `CCNC(=O)CC[C@H](N)C(=O)O`, the “ARE/NRF2 luciferase reporter activity” value is inactive: 0.952.
Regarding `CC=CC(=O)N(CC)c1ccccc1C`, the “ARE/NRF2 luciferase reporter activity” value is inactive: 1.21.
`CCCC(=O)O[C@]1(C(=O)CO)CC[C@H]2[C@@H]3CCC4=CC(=O)CC[C@]4(C)[C@H]3[C@@H](O)C[C@@]21C`: the “ARE/NRF2 luciferase reporter activity” value is inactive: 0.942.
In the case of `CCOC(=O)C1=C(C)NC(C)=C(C(=O)OC)C1c1cccc(Cl)c1Cl` (stereo not given), the “ARE/NRF2 luciferase reporter activity” value is inactive: 1.01.
Turning to `CC(=O)OC1CCC2(C)C(=CCC3C2CCC2(C)C(C(C)CCCC(C)C)CCC32)C1` (stereo not given), the “ARE/NRF2 luciferase reporter activity” value was inactive: 1.05.
In the case of `COC(=O)[C@H](c1ccccc1Cl)N1CCc2sccc2C1`, the “ARE/NRF2 luciferase reporter activity” value is inactive: 0.924.
`C=C1[C@H]2CC[C@@]3(C)[C@H](c4ccoc4)OC(=O)C[C@]13O[C@H]1C[C@H](O)C(C)(C)[C@H](CC(=O)OC)[C@]12C` [3-DEOXY-3beta-HYDROXYANGOLENSIC ACID METHYL ESTER]: the “ARE/NRF2 luciferase reporter activity” value was inactive: 0.774.
The value for `CNCCCN1c2ccccc2CCc2ccccc21` was inactive: 0.384; that for `NC[C@H]1O[C@H](O[C@H]2[C@H](O[C@@H]3O[C@H](CO)[C@@H](O)[C@H]3O)[C@@H](O)[C@H](N)C[C@@H]2N)[C@H](N)[C@@H](O)[C@@H]1O` was inactive: 0.85; that for `CN(C)CCOC(c1ccccc1)c1ccccc1` was inactive: 0.951.
In the case of `NC(=O)c1cc[n+](CC2=C(C(=O)O)N3C(=O)[C@@H](NC(=O)[C@@H](c4ccccc4)S(=O)(=O)[O-])[C@H]3SC2)cc1`, the “ARE/NRF2 luciferase reporter activity” value is inactive: 1.33.
In the case of `C[C@]12CCC(=O)C=C1CC[C@@H]1[C@@H]2C(=O)C[C@@]2(C)[C@H]1CC[C@]2(O)C(=O)CO`, the “ARE/NRF2 luciferase reporter activity” value is inactive: 0.952.
`CC(=O)O[C@H]1CC[C@]2(C)[C@H]3CC=C4[C@@H]5CC(C)(C)CC[C@]5(C(=O)O)CC[C@@]4(C)[C@]3(C)CC[C@H]2C1(C)C`: the “ARE/NRF2 luciferase reporter activity” value is inactive: 0.795.
Regarding `Cc1cc(C(C)(C)C)cc(C)c1CC1=NCCN1`, the “ARE/NRF2 luciferase reporter activity” value was inactive: 0.72.
In the case of `CCN(CC)CCNC(=O)c1ccc(N)cc1`, the “ARE/NRF2 luciferase reporter activity” value was inactive: 0.903.
Consider `CCCCCC1C(=O)CCC1CC(=O)OC` (stereo not given), for which the “ARE/NRF2 luciferase reporter activity” value is inactive: 1.03.
For the compound `C[C@@H]1CC[C@@]2(OC1)O[C@H]1C[C@H]3[C@@H]4CC[C@H]5C[C@@H](O)CC[C@]5(C)[C@H]4CC[C@]3(C)[C@H]1[C@@H]2C`, the “ARE/NRF2 luciferase reporter activity” value was inactive: 0.861.
On to `COCCCC/C(=N\OCCN)c1ccc(C(F)(F)F)cc1`, for which the “ARE/NRF2 luciferase reporter activity” value is inactive: 0.843.
Turning to `CCOc1cc(CC(=O)N[C@@H](CC(C)C)c2ccccc2N2CCCCC2)ccc1C(=O)O`, the “ARE/NRF2 luciferase reporter activity” value was inactive: 1.2.
Take `Cc1ccc2c(Br)cc(Br)c(OC(=O)c3ccccc3)c2n1`: the “ARE/NRF2 luciferase reporter activity” value was inactive: 0.245.
Consider `O=C(Nc1ccccc1)c1ccccc1O`, for which the “ARE/NRF2 luciferase reporter activity” value is active: 3.08.
Turning to `CC(=O)Nc1ccccc1`, the “ARE/NRF2 luciferase reporter activity” value was inactive: 0.971.
`Cc1[nH]c(=O)c(C#N)cc1-c1ccncc1`: the “ARE/NRF2 luciferase reporter activity” value is inactive: 0.839.
The value for `Cn1c(=O)c2c(ncn2CC(=O)O)n(C)c1=O` was inactive: 0.825; that for `COCCCOc1ccnc(C[S+]([O-])c2nc3ccccc3[nH]2)c1C` (stereo not given) was active: 3.08.
Turning to `Cc1cc(C(C)(C)C)c(O)c(C)c1CC1=NCCN1`, the “ARE/NRF2 luciferase reporter activity” value was inactive: 0.923.
The value for `COc1c(O)cc(O)cc1O` was inactive: 1.1; that for `COc1c(O)cc2oc3cc(O)c(CC=C(C)C)c(O)c3c(=O)c2c1CC=C(C)C` [alpha-MANGOSTIN] was inactive: 0.011; that for `COc1ccc(C(=O)O)c(O)c1OC` was inactive: 0.904.
As to `CC1=C(/C=C/C(C)=C/C=C/C(C)=C/C=C/C=C(C)/C=C/C=C(C)/C=C/C2=C(C)C(=O)CCC2(C)C)C(C)(C)CCC1=O` [CANTHAXANTHIN (euglenanone)], the “ARE/NRF2 luciferase reporter activity” value was inactive: 0.966.
The value for `CC(=O)O[C@@H]1C[C@H]2C(C)(C)C(=O)C=C[C@]2(C)[C@H]2CC[C@@]3(C)[C@H](c4ccoc4)OC(=O)[C@H]4O[C@]43[C@@]21C` was active: 2.88; that for `O=c1c(O)c(-c2ccc(O)c(O)c2)oc2cc(O)cc(O)c12` was active: 5.12.
In the case of `NCCCC[C@H](N[C@@H](CCc1ccccc1)C(=O)O)C(=O)N1CCC[C@H]1C(=O)O`, the “ARE/NRF2 luciferase reporter activity” value is inactive: 0.973.

The values are drawn from the supplement of paper PMC8748497.
